Residue numbers refer to the chain shown, from its start. Results are given in words; binding and its absence hold for the method and conditions named. In cells and extracts the contact can be indirect. Some binding calls cover weakened binding; strength is not graded here.
Tests used:
Assay in all cases: pull-down; SFB-tagged bait expressed in cells (HEK293T/293T where named), lysate in NETN buffer, streptavidin Sepharose beads 1 h at 4°C, endogenous prey detected by Western blot; Fig 3B/3L control shRNA cells; Fig 4C control, PPM1G and B56δ shRNA cells
SFB-PPM1G A252S (human) = biological target: T1, SFB-PPM1G A252S (human) (UniProt O15355)
T1 sequence: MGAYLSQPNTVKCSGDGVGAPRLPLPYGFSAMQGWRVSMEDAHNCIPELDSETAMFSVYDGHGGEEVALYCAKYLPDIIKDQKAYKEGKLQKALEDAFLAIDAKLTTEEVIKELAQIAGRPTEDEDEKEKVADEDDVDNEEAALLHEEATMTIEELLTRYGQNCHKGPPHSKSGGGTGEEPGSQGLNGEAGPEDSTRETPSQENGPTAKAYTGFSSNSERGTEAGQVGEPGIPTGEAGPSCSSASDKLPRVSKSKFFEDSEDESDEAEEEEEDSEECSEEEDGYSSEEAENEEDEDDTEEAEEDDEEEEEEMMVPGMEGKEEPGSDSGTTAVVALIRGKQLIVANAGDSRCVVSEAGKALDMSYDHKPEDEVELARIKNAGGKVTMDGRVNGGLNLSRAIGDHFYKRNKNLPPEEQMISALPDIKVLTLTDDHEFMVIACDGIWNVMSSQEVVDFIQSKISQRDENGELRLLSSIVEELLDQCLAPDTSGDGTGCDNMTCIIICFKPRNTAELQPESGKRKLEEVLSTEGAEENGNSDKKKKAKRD

Amino acid sequences for entries named in this document (tags omitted).
UniProt P35221: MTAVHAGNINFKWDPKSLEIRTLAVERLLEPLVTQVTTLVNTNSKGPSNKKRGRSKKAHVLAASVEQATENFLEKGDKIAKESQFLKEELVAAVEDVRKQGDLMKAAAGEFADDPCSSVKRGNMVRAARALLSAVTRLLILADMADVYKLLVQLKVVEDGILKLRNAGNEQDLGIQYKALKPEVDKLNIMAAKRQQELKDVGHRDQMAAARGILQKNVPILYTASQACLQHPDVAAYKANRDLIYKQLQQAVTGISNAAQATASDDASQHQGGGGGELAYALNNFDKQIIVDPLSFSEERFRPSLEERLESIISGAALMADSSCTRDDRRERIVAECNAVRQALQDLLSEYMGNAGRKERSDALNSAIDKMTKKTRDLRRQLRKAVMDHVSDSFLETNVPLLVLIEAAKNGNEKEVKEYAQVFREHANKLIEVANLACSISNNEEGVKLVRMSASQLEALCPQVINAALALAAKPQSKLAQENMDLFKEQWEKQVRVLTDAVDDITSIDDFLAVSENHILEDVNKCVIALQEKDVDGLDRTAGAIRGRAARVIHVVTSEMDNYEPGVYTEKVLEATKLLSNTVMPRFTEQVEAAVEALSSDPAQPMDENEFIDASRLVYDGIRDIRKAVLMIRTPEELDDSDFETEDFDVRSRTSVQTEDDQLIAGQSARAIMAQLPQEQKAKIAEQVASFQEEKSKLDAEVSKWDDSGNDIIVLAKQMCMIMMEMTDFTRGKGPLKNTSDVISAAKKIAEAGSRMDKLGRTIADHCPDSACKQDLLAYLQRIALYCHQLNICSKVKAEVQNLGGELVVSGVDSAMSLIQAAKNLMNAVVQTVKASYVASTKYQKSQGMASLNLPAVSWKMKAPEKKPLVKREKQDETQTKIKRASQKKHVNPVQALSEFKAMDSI

SFB-PPM1G D133V (human) = biological target: T2, SFB-PPM1G D133V (human) (UniProt O15355)
T2 sequence: T1 sequence with D133V, S252A

SFB-PPM1G G188W (human) = biological target: T3, SFB-PPM1G G188W (human) (UniProt O15355)
T3 sequence: T1 sequence with G188W, S252A

[1] = biological target: T4, SFB-PPM1G full length (FL) (human) (UniProt O15355)
T4 sequence: T1 sequence with S252A

Measured: binding

endogenous α-catenin (from UniProt P35221 1-906)
binds: all assays above
